Measurements from ChEMBL document CHEMBL4888484, “Replenishing the malaria drug discovery pipeline: Screening and hit evaluation of the MMV Hit Generation Library 1 (HGL1) against asexual blood stage Plasmodium falciparum ,using a nano luciferase reporter read-out” (2022).
About 540 (0.36%) of roughly 150,000 compounds showed an effect of 50% or more. This is one part of the list.

tested on: Plasmodium falciparum; assay: Primary screen in NF54 nanoGlo assay, in single point, at 2uM, 72h; a lower Z score goes with more inhibition; format: functional, Erythrocyte; settings: timepoint 72 hour

Row | SMILES | % Inhibition [%] | Z score
1 | CCCNC(=O)[C@H](C)NC(=O)Nc1cccc(C)c1 | -4 | 0.53
2 | O=C(c1ccc(Cn2ccnn2)cc1)N1CCn2cncc2C1 | 0 | 0.09
3 | O=C1C[C@H](c2ccccc2Cl)c2cnn(Cc3ccc4c(c3)OCO4)c2N1 | 7 | -0.84
4 | COc1ccc(-c2noc(-c3sc(-c4nnc[nH]4)nc3C)n2)cc1 | -3 | 0.46
5 | Nc1c(-c2nc3ccccc3[nH]2)c2nc3ccccc3nc2n1Cc1ccccc1F | 78 | -5.76
6 | Cc1ccccc1C(=O)N1[C@H](C(=O)NCc2ccncc2)COC12CCN(C(=O)c1cccc(F)c1)CC2 | 5 | -0.85
7 | CC(=O)N[C@H]1[C@H](OCCC(C)C)O[C@H](COC(C)=O)[C@@H](OC(C)=O)[C@@H]1OC(C)=O | 5 | -0.61
8 | CC1CCCCC1OCCN1CCN(CC(O)c2ccco2)CC1 (stereo not given) | -15 | 1.25
9 | O=C(c1ccc(F)cc1Br)N(Cc1ncc[nH]1)c1cccc(F)c1 | -3 | 0.36
10 | Nc1ccc(Br)cc1C(=O)N[C@H]1CC[C@H](O)CC1 | -9 | 1.19
11 | O=C(c1cccs1)N1CCC(c2nnc(C3CC3)o2)CC1 | 20 | -2.66
12 | CCCCCC(=O)Nc1ccccc1Cl | 36 | -0.95
13 | FC(F)(F)c1ccc(-c2noc([C@@H]3Cc4[nH]cnc4CN3Cc3cc4ccccc4o3)n2)cc1 | 0 | -0.05
14 | Cc1nn(C)c(C)c1S(=O)(=O)Nc1ncc(C(C)C)s1 | 32 | -0.94
15 | NC(=O)Cn1ccnc1C1CCN(c2ncnc3ccsc23)CC1 | -7 | 0.86
16 | O=C([C@@H]1CCCO1)N1CCN(c2nc(-c3cccnc3)nc3c2CNC3)CC1 | -8 | 1.32
17 | CCCn1cc(C(=O)NC[C@]2(O)CCCC2(C)C)cn1 | 24 | -2.71
18 | O=C(c1c(F)cc(F)cc1F)C1CCN(Cc2csnn2)CC1 | -12 | 1.6
19 | COc1ccccc1CC(=O)NCc1ccc(-c2ccco2)nc1 | -9 | 0.98
20 | C[C@@H](c1ccon1)N(C)C(=O)c1coc(COc2ccc(F)cc2)n1 | -6 | 0.85
21 | Nc1nc(CCNC(=O)c2ccc([C@@H]3CCCN3)s2)cs1 | -3 | 0.44
22 | Cc1ccc(CCN2C(=O)CC[C@@]2(C)C(=O)NC2CCCCCC2)cc1 | -31 | 2.72
23 | CCOc1ccccc1-c1nccn1CCNC(=O)c1cccnc1 | 10 | -1.32
24 | CCC(C)C(NC(=O)c1ccc(Cl)cc1)C(=O)OCc1cn2ccccc2c1C#N (stereo not given) | -6 | 1.06
25 | Cc1cc(C)c2nc(NC[C@H]3CCCO3)sc2c1 | 19 | -2.39
26 | O=C(C1CCCC(C(=O)N2CCCCCO2)C1)N1CCCCCO1 (stereo not given) | 23 | -2.92
27 | Cc1cccc(NC(=O)Cn2cccc(S(=O)(=O)N3CCC(C)CC3)c2=O)c1 | -8 | 1.1
28 | COc1cccc(S(=O)(=O)N2CCn3nnc(CCC(=O)N4CCOCC4)c3C2)c1 | -5 | 0.99

Row | SMILES | % Inhibition [%] | Z score
29 | CCn1cc(NC(=O)c2cc(Br)cnc2N(C)C)cn1 | -16 | 1.66
30 | CO[C@@H](C)c1nc(CCc2ccccc2)nn1CC(F)(F)F | -3 | 0.48
31 | CCc1nc(CNC(=O)[C@@H]2NCCc3[nH]cnc32)cs1 | -6 | 0.63
32 | CCN(Cc1nc2c(s1)C[C@@H](C)CC2)C(=O)c1cnc(OC)nc1 | 0 | 0.01
33 | CC(C)Oc1ccc(-c2ccnc3c2ccn3C)nn1 | 0 | -0.03
34 | CCn1nc(C)c(CN2CCC(n3nccc3NC(=O)c3cccnc3)CC2)c1C | -5 | 0.92
35 | Nc1c(NC(=O)Nc2ccccc2)c(-c2ccccc2)nn1-c1ccccc1Cl | 2 | -0.35
36 | O=C(CCC(F)(F)F)N[C@H]1CC[C@@H]2CCC[C@@H]21 | -15 | 1.4
37 | CCCCN1CCN([C@H]2CCOC2)CC1=O | -9 | 1.55
38 | CCCc1nnc(N(C)C[C@H]2CCOC2)s1 | -6 | 1.19
39 | O=C(N[C@H]1C[C@H]2C(=O)Nc3cc(Cl)ccc3C(=O)N2C1)c1ccccc1 | 25 | -2.88
40 | Cc1csc(C(C)(C)NC(=O)CCn2nc3ccccn3c2=O)n1 | -2 | 0.26
41 | Cc1n[nH]c2c1CN(C(=O)N[C@@H](C)c1ccc(F)cc1)CC2 | 4 | -0.58
42 | COCCN1CCN(c2nc(-c3ccc(F)cc3)c3c(N)n(-c4ccc(Cl)cc4)nc3n2)CC1 | -3 | 0.28
43 | COc1ncccc1C(=O)N1CCc2sccc2C1 | -13 | 2.49
44 | C[C@H]1CNc2nc(N)[nH]c(=O)c2N1C(=O)c1cccnc1 | 1 | -0.14
45 | O=C(Nc1cccc(-c2noc(C3CC3)n2)c1)c1cccnc1C1CC1 | -11 | 1.47
46 | C[C@@H](CCc1cccn1C)Nc1nccnc1C#N | 0 | 0.01
47 | O=c1nc([C@@H]2CCCO2)[nH]c2c(Cl)cccc12 | 0 | -0.06
48 | CCCc1nnc(NCc2cnn(CC)c2)s1 | -16 | 3.02
49 | NS(=O)(=O)c1ccc(NC(=O)C23CCC(CC2)C3)cc1 | -7 | 0.94
50 | CN(C)c1ccc(CNC(=O)C2CCN(c3cnc(N4CCCC4)nc3)CC2)cc1 | -18 | 2.04
51 | O=C(C1COCCO1)N1CCCC(O)C1CCc1ccccc1 (stereo not given) | -9 | 1.3
52 | CN1N=C(C(=O)Nc2ccc(N(C)C)nc2)CCC1=O | -5 | 0.44
53 | CCc1n[nH]c(C(=O)NC[C@@H]2COc3ccccc3C2)c1C | -7 | 1.12
54 | O=C(NC1CCCC1)N1CCN(c2cccnc2)C(=O)C1 | 16 | -1.98
55 | CC1(C)OCCC1NC(=O)[C@H]1CC1(C)C (stereo not given in full) | -9 | 1.26
